# Reference: ChEMBL document CHEMBL1157539, “Thousands of chemical starting points for antimalarial lead identification” (Nature, 2010)
# Over roughly 13,000 compounds, “IFI” has its median near 4; the highest 2% begin near 17. Some of the results follow.
# Experiment: GSK_TCMDC: Inhibition Frequency Index (IFI). The number of non-kinase HTS assays where a compound showed > 50 % inhibition, expressed as a percentage of the number of such assays in which the compound was tested (-0 is zero)
# Format: functional
row,SMILES,IFI [%]
1,CCOc1cccc(C(=O)Nc2cccc(CN3CCCN(Cc4cccc(O)c4)CC3)c2)c1,3.85
2,COc1cccc(CN2Cc3ccccc3OC3(CCN(Cc4c[nH]c5cnccc45)CC3)C2)c1,11.1
3,COc1cc2ccccc2cc1CNCCCCCCNCc1cc2ccccc2cc1OC,7.91
4,CO/C(=C\C=C\c1cc2cc(Cl)c(Cl)cc2[nH]1)C(=O)NC1CCN(CCOc2ccccc2)CC1,10.6
5,FC(F)(F)c1ccc2[nH]c(-c3cccc(-c4cccc(CNCc5cnn(-c6ccccc6)n5)c4)c3)nc2c1,0
6,COc1ccc(NC(=O)[C@H](CC(C)C)Nc2cc(C)nc(NCCc3ccc(F)cc3)n2)cc1,9.09
7,Cc1cccc(CNc2nc(C)cc(NCCC(=O)NCc3cccc(F)c3)n2)c1,4.76
8,COc1ccc(NC(=O)[C@H](CC(C)C)Nc2cc(C)nc(NCCc3ccccc3)n2)cc1,16.3
9,O=C(N[C@@H](Cc1cc(F)cc(F)c1)[C@H](O)CNCc1cccc(C(F)(F)F)c1)c1cc(C2CCCC2)cc(N2CCCC2=O)c1,10.5
10,Nc1c2ccccc2nc2cc(Cl)ccc12,4.32
11,O=S(=O)(Nc1cccc(CCN2CCC(N3CCCCC3)CC2)c1)c1ccccc1C(F)(F)F,3.39
12,Clc1cc(Cl)c2c(c1)C(NCCCNc1nc3ccccc3[nH]1)CCO2 (configuration not stated),7.86
13,CN(C)CCOc1ccc2c(=O)cc(CCc3cccc(F)c3F)n(CC(=O)N(C)Cc3ccc(-c4ccc(C(F)(F)F)cc4)cc3)c2c1,2.92
14,COc1ccc2nccc([C@@H](O)CN3CCC(NC(=O)/C=C/c4ccc5cc(C)[nH]c5c4)CC3)c2c1,0.73
15,COc1ccc2c(c1)CC(C)(C)NC2CCCCCCCCC1NC(C)(C)Cc2cc(OC)ccc21 (configuration not stated),8.63
16,CCOc1ccc2c(=NN=Cc3ccccc3OC)cc(C)[nH]c2c1,3.62
17,Cc1cc(-c2ccc3c(c2)CCN(CCC2CCC(NC(=O)/C=C/c4cccc(F)c4)CC2)CC3)on1 (configuration not stated),4.48
18,Cc1ccc(C2(C)CC(C)(C)N(C(=O)COc3ccc4ccccc4c3)c3ccccc32)cc1 (configuration not stated),-0
19,Cc1nnc2c(NC(=O)NC3CCCC3)cc3ccc(-c4cccc(CN(C)C)c4)cc3n12,11.1

row,SMILES,IFI [%]
1,COc1c(C)cc(I)cc1CNCCCNc1cc(=O)c2ccccc2[nH]1,0.74
2,CC(CN(C)C)C(=O)Nc1cccc(-c2ccc(-c3nc4cc(C(F)(F)F)ccc4[nH]3)cc2)c1 (configuration not stated),6.31
3,COc1ccccc1CCNc1nc(C)cc(NCCC(=O)Nc2ccccc2)n1,7.14
4,COc1ccccc1NC(=O)Nc1cccc(-c2cccc(-c3nc4cc(C(F)(F)F)ccc4[nH]3)c2)c1,5.05
5,Cc1cc(N[C@@H](Cc2ccccc2)C(=O)Nc2ccccc2)nc(NCCc2cccs2)n1,11.6
6,COc1ccccc1CCNc1nc(C)cc(N[C@@H](Cc2ccccc2)C(=O)NCCOc2ccccc2)n1,17.1
7,CC1=C(C(=O)Nc2cc3cn[nH]c3cc2F)C(c2cccc(NS(C)(=O)=O)c2)CC(=O)N1 (configuration not stated),0.94
8,Fc1cccc(COc2ccc(Nc3ncnc4sc(C#Cc5ncc[nH]5)cc34)cc2Cl)c1,1.71
9,COc1ccc(-c2cnc(N)c(-c3ccc(C(N)=O)cc3)c2)cc1OC,3.39
10,O=C(/C=C/c1ccc(Cl)c(Cl)c1)NCCCCCN1CCC(NC(=O)Nc2ccc3c(c2)OCO3)CC1,4.64
11,Cc1cc(CNCC(CCNc2cc(=O)c3ccccc3[nH]2)NCc2cc(Br)cc(Br)c2)oc1C (configuration not stated),6.67
12,COC(=O)c1cc(OC)c(OC)cc1NC(=O)NC12CC3CC(CC(C3)C1)C2,0.88
13,Cc1ccc(Cn2cnc3cc(C(=O)Nc4ccc(-c5cccc(CN(C)C)c5)cc4)ccc3c2=O)o1,7.92
14,O=S(=O)(c1c(Cl)cc(Cl)cc1Cl)N1CCCCC(c2ccc(F)c(F)c2)=N1,1.55
15,COc1ccc2nccc([C@@H](O)CN3CCC(NCc4cc5ccccc5nn4)CC3)c2c1,3.15
16,CS(=O)(=O)NCCCNCc1ccc(-c2cccc(-c3nc4cc(F)ccc4[nH]3)c2)cc1,3.96
17,O=C(Nc1cc(F)c(F)c(-c2cccnc2)c1)N1CCc2cc(Cl)c(Cl)cc21,-0
18,Nc1ncc(Cc2ccc3c(ccc4ccccc43)c2)c(N)n1,0.72
19,O=C(NCCCCN1CCC(c2ccc3ccccc3c2)CC1)c1ccc(NC(=O)c2ccc(Cl)cc2)cc1,2.73

row,SMILES,IFI [%]
1,CNC(=O)c1cnc(Nc2ccc3[nH]c(=O)[nH]c3c2)nc1Nc1cccc(OC(C)C)c1,4.96
2,O=C(NC1CC1)c1ccc(N2CCCC(COc3ccc4c(c3)CCCC4)C2)nc1 (configuration not stated),-0
3,CCCCCCCCN1CCCN(C(=O)c2cccc(NC(=O)Nc3ccc4ccccc4c3)c2)CC1,-0
4,CCCC(=O)Nc1ccc(OCCCN(Cc2ccccc2C(F)(F)F)c2ccc(C#N)c(C(F)(F)F)c2)cc1,2.68
5,N#Cc1ccc(C=Cc2nccc3c2[nH]c2ccccc23)cc1,3.28
6,COC(=O)c1ccc2c(-c3nc4ccc(OC)cc4[nH]3)c[nH]c2c1,4.32
7,O=C(/C=C/c1ccc(Cl)cc1)NCCCCCN1CCC(C(=O)Nc2ccc(Cl)c(Cl)c2)CC1,11.3
8,CN(C(=O)Cc1ccc(Cl)cc1)C1CCN(CCCCCNC(=O)/C=C/c2ccc(Cl)c(Cl)c2)CC1,13.7
9,COc1ccc(OCCCON)cc1,0
10,O=C(Nc1cccc(-c2cccc(-c3nc4ccccc4[nH]3)c2)c1)c1ccoc1,5.36
11,COc1ccc2nccc([C@@H](O)CN3CCC(NCc4cc5c(Cl)cc(Cl)cc5[nH]4)CC3)c2c1,6.34
12,CCCc1cc(C(C)=O)ccc1OCCCON1C(=N)N=C(N)NC1(C)C,3.68
13,Cc1ccc2sc(N(CCCn3ccnc3)C(=O)c3ccco3)nc2c1C,4.17
14,O=C(/C=C/c1ccc(C(F)(F)F)cc1)NCCCCCN1CCN(C(=O)Nc2ccc(Cl)cc2)CC1,5.88
15,C(=NN=c1cc[nH]c2ccccc12)c1ccncc1,0
16,COc1ccc(S(=O)(=O)NC2CCN(CCNC(=O)Nc3cc(C)nc4ccccc34)C2)cc1 (configuration not stated),-0
17,COc1ccc(C2SCC(=O)N2CCc2ccc(OC)c(OC)c2)cc1 (configuration not stated),2.96
18,CC(NC(=O)c1cc(-c2ccccc2)nc2c1cnn2C(C)C)C1CC1 (configuration not stated),2.04
19,Cc1ccoc1C(=O)Nc1cccc(-c2cccc(-c3nc4cccc(C)c4[nH]3)c2)c1,5.56
